From paper PMC4336329 (PLoS ONE, 2015)
In all, about 310,000 compounds went through this assay and about 2,200 (0.71%) showed an effect of 50% or more. Effects have a minus sign here. The list shows a part of the results.

biological target: human ether-à-go-go-related gene (hERG) potassium channel (human, UniProt Q12809); assay: primary screen, population patch clamp on CHO cells stably expressing hERG
Sequence (Q12809 whole entry, looked up): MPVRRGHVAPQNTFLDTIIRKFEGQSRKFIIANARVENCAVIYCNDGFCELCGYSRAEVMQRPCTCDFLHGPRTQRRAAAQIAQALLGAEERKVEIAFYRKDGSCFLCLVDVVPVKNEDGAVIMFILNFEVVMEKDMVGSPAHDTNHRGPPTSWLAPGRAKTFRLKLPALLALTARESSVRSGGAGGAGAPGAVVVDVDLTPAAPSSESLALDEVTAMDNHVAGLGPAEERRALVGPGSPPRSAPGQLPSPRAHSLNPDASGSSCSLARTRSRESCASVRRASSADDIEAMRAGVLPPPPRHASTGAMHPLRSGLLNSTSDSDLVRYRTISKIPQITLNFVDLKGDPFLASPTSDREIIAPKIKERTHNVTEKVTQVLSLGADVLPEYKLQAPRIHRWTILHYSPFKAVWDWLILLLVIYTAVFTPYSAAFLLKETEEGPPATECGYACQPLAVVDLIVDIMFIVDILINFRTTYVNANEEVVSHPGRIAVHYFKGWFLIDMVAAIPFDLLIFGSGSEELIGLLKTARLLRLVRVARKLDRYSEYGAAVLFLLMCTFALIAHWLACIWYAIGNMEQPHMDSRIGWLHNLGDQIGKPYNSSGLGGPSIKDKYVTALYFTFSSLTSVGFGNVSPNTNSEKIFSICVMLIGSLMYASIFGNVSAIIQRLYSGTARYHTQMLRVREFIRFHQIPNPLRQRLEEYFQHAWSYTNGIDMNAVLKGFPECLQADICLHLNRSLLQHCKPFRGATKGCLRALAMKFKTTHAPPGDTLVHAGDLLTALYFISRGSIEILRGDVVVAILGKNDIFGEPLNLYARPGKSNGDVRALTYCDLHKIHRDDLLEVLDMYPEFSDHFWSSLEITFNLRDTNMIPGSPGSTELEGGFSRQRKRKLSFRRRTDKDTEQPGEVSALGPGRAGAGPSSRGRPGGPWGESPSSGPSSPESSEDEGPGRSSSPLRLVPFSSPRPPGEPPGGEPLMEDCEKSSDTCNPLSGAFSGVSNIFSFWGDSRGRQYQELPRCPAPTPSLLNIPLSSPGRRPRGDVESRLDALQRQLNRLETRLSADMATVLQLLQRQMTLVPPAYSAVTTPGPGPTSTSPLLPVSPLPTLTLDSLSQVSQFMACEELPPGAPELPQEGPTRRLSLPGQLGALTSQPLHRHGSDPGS

Structure (SMILES)	hERG current change (%, negative = inhibition) at 1uM [%]
CC1CCN(S(=O)(=O)c2ccc(NC(=O)[C@@H]3CCCN3C(=O)c3cccs3)cc2)CC1	6.15
COC(=O)c1cc2occc2n1Cc1nc(-c2cccc(Cl)c2)oc1C	11.1
Cc1ccc(-c2ccc(C(=O)NCc3ccccc3)o2)c2ccccc12	5.47
CCC(C)c1ccc(NC(=O)c2cnn3c(C(F)F)cc(C)nc23)cc1 (centres unmarked)	9.4
CC(C)OCC(O)CN (centres unmarked)	4.04
COc1ccc(-c2n[nH]c(=S)nc2-c2ccc(OC)cc2)cc1	18.5
C=C(C)COc1ccc(-c2[nH]ncc2-c2ccccc2OC)c(O)c1	1.13
NNC(=O)C(=O)NCCCN1CCOCC1	17.4
CC(C)Oc1ccc(C2CCC(=O)NC2=O)cc1 (centres unmarked)	10.8
CCOC(=O)c1cnc(-n2nc(C)cc2C)nc1Nc1ccc(O)cc1	14.2
Cc1cc(C(=O)N2CCN(c3ccc(C(F)(F)F)cn3)CC2)c(C)o1	2.84
COCCn1nnnc1C(c1ccccn1)N1CCN(c2cccc(C)c2C)CC1 (centres unmarked)	0.646
COc1ccc(CCNC(=O)CSc2ccc(-c3cccs3)nn2)cc1OC	9.88
CC(=O)Nc1ccc(S(=O)(=O)Oc2ccc(Br)cc2C(=S)N2CCOCC2)cc1	11.4
COc1ccccc1CNC(=O)[C@H](C)N1C(=O)N2CCc3c([nH]c4ccccc34)[C@@]2(C)C1=O	-5.02
Cc1sc2ncnc(SCC(=O)NC(C)(C)C)c2c1C	12.4
Clc1ccc(OCc2nn3c(-c4ccncc4)nnc3s2)cc1	0.946
O=C(C1CCC1)N1CCc2cc(S(=O)(=O)NC3CCCC3)ccc21	9.5
Cc1cccc(NC(=O)COC(=O)COc2ccc3c(c2)CCC3)c1	11.7
CCOc1cccc(C(=O)NC(=S)NCc2cccnc2)c1	4.21

Structure (SMILES)	hERG current change (%, negative = inhibition) at 1uM [%]
CCn1nnnc1SCC(=O)c1cc(OC)ccc1OC	-0.278
CC(=O)c1c(C)[nH]c(C(=O)N2CCN(c3ccc(F)cc3)CC2)c1C	-11.3
O=C1NC(=S)N/C1=C/c1cccc([N+](=O)[O-])c1	17
Cl.O=S(=O)(N1CCCCCC1)N1CCNCC1	15.2
COc1ccc(S(=O)(=O)N2CCCCC2)cc1NC(=O)c1ccc2ccccc2n1	7.73
CC1(C)CC(=O)C2=C(C1)Nc1cc(Cl)ccc1S2	9.13
Cc1ccc(Cn2ncc3c(N4CCN(c5ccc(C)cc5)CC4)ncnc32)cc1	11.9
CS(=O)(=O)Nc1ccc(C(=O)NCCSc2ccc(Cl)cc2)cc1	-5.83
O=C(COc1cccc2ccccc12)NNC(=O)c1cnccn1	8.78
Cn1c(=O)c2c(nc(N/N=C/c3ccc(OC(=O)c4ccco4)cc3)n2Cc2ccccc2Cl)n(C)c1=O	13.3
Cn1c(=O)[nH]c(=O)c2c1nc1n2CCS1	9.88
CCC(C)N1CC23C=CC(O2)C(C(=O)OCc2ccccc2)C3C1=O (centres unmarked)	10.9
CN(CC(=O)Nc1ccccc1C(F)(F)F)C(=O)CCc1nc2ccccc2c(=O)[nH]1	6.23
CCOc1ccc2[nH]cc(S(=O)(=O)c3ccc(Cl)cc3)c(=O)c2c1	15.4
COc1ccc(-n2nnc3c(SCC(=O)NCc4ccco4)ncnc32)cc1	-1.66
CC(C)N1CCN(Cc2ccc(Oc3ncccn3)cc2)CC1CCO (centres unmarked)	6.59
COc1cc(/C=N/NC(=O)COc2ccccc2C)ccc1OC(=O)c1cccs1	-2.96
C[C@]12CCC3[C@@H](CCC4=CC(=O)CC[C@@]43CO)C1CCC2=O (some centres unmarked)	7.52
CCCCNC(=S)NNC(=O)c1ccco1	-9.48
Cc1cc(C)cc(OCC(=O)Nc2ccc(-n3cnnn3)cc2)c1	14.4

Structure (SMILES)	hERG current change (%, negative = inhibition) at 1uM [%]
CCSc1nnc(NC(=O)COc2ccccc2[N+](=O)[O-])s1	10.6
CC(C)CC(OC(=O)c1cccs1)C(=O)NCC1CCCO1 (centres unmarked)	7.4
CC(=O)CCC(=O)OCC(=O)Nc1ccc(SC(F)F)cc1	4.79
CN1C2CCC1CC(OC(=O)c1ccc([N+](=O)[O-])cc1)C2 (centres unmarked)	-45.5
Cc1nn(C(C)C(=O)NCCCc2ccccc2)c(=O)c2nn(-c3ccccc3)c(C)c12 (centres unmarked)	8.73
O=c1[nH]c(O)c(N=Nc2ccc([N+](=O)[O-])cc2)c(=O)[nH]1	13.8
Cc1noc(C)c1S(=O)(=O)N1Cc2ccccc2CC1C(=O)N(C)C (centres unmarked)	-2.29
CCCn1c(SCC(=O)c2ccc(CC)cc2)n[nH]c1=O	13.5
Cc1cc(C)nc(N/N=C/c2ccc(Cl)cc2)n1	5.62
O=c1c2ccccc2nc(/C=C/c2ccc(O)cc2)n1-c1ccccc1O	8.68
O=C(Nc1cc(S(=O)(=O)N2CCCC2)ccc1Cl)C1=COCCO1	11.4
CC(O)C(O)C(O)C(O)C1NCCS1 (centres unmarked)	8.04
O=C(CCN1C(=O)/C(=C/c2cccs2)SC1=S)Nc1ccccn1	18.3
Cn1c(CNc2ccc(F)cc2)nc2ccccc21	4.33
CCOc1ccc(C(O)(CCC(C)C)C(CN2CCOCC2)c2ccccc2)cc1.Cl (centres unmarked)	14.4
O=C1C2C3C=CC(C4CC34)C2C(=O)N1c1cccc2ccccc12 (centres unmarked)	5.09
Cc1cccc(NC(=O)c2ccc3c(c2)OCCO3)c1C	8.86
Cc1cc(C)c(C#N)c(Sc2ccccc2N)n1	15.6
NC(=O)COC(=O)CNC(=O)c1ccc(Cl)cc1	16.9
